Among all 1,200 compounds or so, about 55 (5%) were called active. Roughly 15% stayed inconclusive and do not appear here. The call rests on the fitted dose curve; in most records, active means well fitted inhibition curve with a large enough effect; inconclusive means small, poorly fitted or top-dose-only effect; inactive means no such curve, though single readings can be large or run the other way. The list shows a part of the results.
Experiment: qHTS Assay to Find Inhibitors of Chronic Active B-Cell Receptor Signaling: Hit Validation in Renilla Reporter Assay; further: nearly all actives have a fitted effect of over 70% in size
Details: TMD8 IkB-Renilla luciferase reporter, NF-kB signaling; series mostly up to 57.5 µM; activity change, negative = inhibition: at the top concentration
In short: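 Dual-Glo luminescence read-out of constitutively expressed IkB-Photinus/Renilla luciferase reporters in ABC-DLBCL lines, used to retest primary hits; reporter enzymes differ from the click beetle luciferases used in the primary screen.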
On the % scale 0 is the no-effect control and ±100 the full control effect; potency means the concentration at half of the fitted maximal effect.

Activity change, negative = inhibition, inactive:
CC[C@]1(O)CC2CN(CCc3c([nH]c4ccccc34)[C@@](C(=O)OC)(c3cc4c(cc3OC)N(C=O)[C@H]3[C@@](O)(C(=O)OC)[C@H](OC(C)=O)[C@]5(CC)C=CCN6CC[C@]43[C@@H]65)C2)C1 (some centres undefined) -23.7%
COc1cc(/C=C/c2ccc3cccc(O)c3n2)cc(Cl)c1OC -4.98%
Nc1ccc(C(=O)Nc2ccccc2N)cc1 87.1%
CCCCn1c(=O)c(F)cn(Cc2ccc(OC)c([N+](=O)[O-])c2)c1=O 2.27%
COc1ccc(COC(=O)C2=C(C)NC(=O)NC2c2cc(Br)c(O)c(OC)c2)cc1 (centres undefined) -19.4%
COc1cc(/C=C2\N=C(c3ccccc3)NNC2=O)cc(OC)c1OC 24.1%
CC[C@]12c3[nH]c4cc(CCC(=O)N(C)C)ccc4c3CCN1C(=O)[C@@H](CC(=O)NC(C)(C)C)C[C@@H]2C(=O)N1CCN(C(=O)c2ccco2)CC1 -0.0894%
CC1=CC(C)(C)N(S(=O)(=O)c2ccc(C)cc2)c2ccc(C)cc21 -19%
Cc1cc(C)cc(NS(=O)(=O)c2ccc(-c3cnc(C4CC4)o3)cc2)c1 25.8%
S=C(NCCN1CCOCC1)N/N=C/c1cccs1 1.18%
COC(=O)Nc1nc(-c2ccccc2)c(C(=O)c2ccc(Cl)cc2)s1 9.55%
COC(=O)c1ccc(CNC(=O)Cn2cnc3c(NCc4ccccc4)ncnc32)cc1 5.07%
CCOc1ccc(S(=O)(=O)NCc2ccccn2)cc1NC(=O)c1ccccc1F 5.11%
COc1ccc(-c2c3c(=O)n(C)c(=O)n(C)c3cn2N2CCOCC2)cc1 -20.9%
Cc1cc(C)c2cc(C=O)c(Cl)nc2c1 3.92%
CCn1c2ccccc2c2cc(NC(=O)c3cc(OC)cc(OC)c3)ccc21 2.33%
c1ccc(C2=Nn3c(nnc3-c3n[nH]c4c3CCC4)SC2)cc1 -11.8%
COc1cc2c(cc1OC)-c1cc(Nc3ccccc3C)nc(=O)n1CC2 -2.82%
COc1ccc(C(=O)c2ccc(OC)c(N)c2)cc1N 2.59%
CCOC(=O)C(C)N1C(=O)S/C(=C/c2cc(C)n(-c3ccccn3)c2C)C1=O (centres undefined) -1.07%
Cc1ccccc1Nc1c(N)c(=O)oc2ccccc12 5.23%
Cc1ccccc1N1CCN(C2=NC(=O)/C(=C\c3cccs3)S2)CC1 -10.4%
CC1=NN(C(N)=S)C(=O)C1N=Nc1ccc(F)cc1 (centres undefined) -18.2%
COc1ccc(C2=NN(C(C)=O)C(c3cccs3)C2)cc1OC (centres undefined) 3.79%
CCC1=Nc2cc(C(=O)NCc3ccccc3Cl)ccc2Sc2ccc(C)cc21 8.29%
COc1cc(SSc2cc(OC)cc([N+](=O)[O-])c2N)c(N)c([N+](=O)[O-])c1 0.788%
CCNC(=S)NNc1ccccc1 2.7%
CCOc1ccccc1CNS(=O)(=O)c1ccc(-c2cnc(C3CC3)o2)cc1 -4.15%
Cc1ccc(/C=N/NC(=O)c2cc(-c3cccnc3)nc3ccccc23)cc1 -4.67%
Cc1c(/C=N\NC(=O)C2COc3ccccc3O2)c2ccccc2n1C (centres undefined) -13.8%
CC1C(=O)N2CCCc3cc(NC(=O)c4ccccc4Br)cc1c32 (centres undefined) 9.75%
Oc1ccc(CNc2ccccc2F)c2cccnc12 9.53%
COC(=O)c1ccccc1NC(=O)Cn1c(-c2nonc2N)nc2ccccc21 -21.5%
COc1cc2c(cc1C1NC(=S)NC(C)=C1C(N)=O)CCCC2 (centres undefined) 2.66%
NC(=S)NN=C1c2ccccc2-c2ccccc21 -21.7%
COc1cccc(N2CCN(C(=O)c3ccc(CS(=O)c4ccc(C)cc4)o3)CC2)c1 (centres undefined) -5.33%
OC[C@H]1O[C@@H](n2cnc3c(NC4CCCC4)nc(Cl)nc32)[C@H](O)[C@@H]1O -17.7%
COc1cc2c(cc1OC)-c1cc(Nc3ccc(C)cc3)nc(=O)n1CC2 -18.8%
CCCn1nnc(NC(=S)NC(=O)Cc2ccccc2)n1 6.62%
COc1cc(C2=NOC(C(=O)NCc3ccco3)C2)cc(OC)c1OC (centres undefined) -1.17%
COc1cc(-c2noc(C)c2/C=C/c2ccc(OC(C)=O)cc2)cc(OC)c1OC -22.1%
C/C(=N\NC(=O)COc1ccc(C(C)(C)C)cc1)c1ccc(N2CCOCC2)cc1 -17.7%
O=C(NC(=S)NC1CCSC1=O)c1ccccc1 (centres undefined) 3.18%
COc1cc(OC)c2c(-c3cccc(-c4sccc4C(C)=O)c3)cc(=O)oc2c1 -25.5%
COc1cc2c(c(OC)c1OC)-c1ccc(N(C)CC(OC)OC)c(=O)cc1[C@@H](NC(C)=O)CC2 -11.3%
NS(=O)(=O)c1cc(C(=O)OCC(=O)N2CCc3ccccc3C2)ccc1Cl 7.65%
CC1CC(C)CN(S(=O)(=O)c2ccc(NC(=O)c3ccc(=O)[nH]c3)cc2)C1 (centres undefined) 14.9%
Cc1cc(C)c(S(=O)(=O)Nc2ccc3c4c(cccc24)CC3)c(C)c1 12.3%
CCOC(=O)C1(C)C(C(=O)OC)=C(c2ccc(OC)cc2)c2ccccc2N1C(=O)OC (centres undefined) 0.713%
CC(=NNC(=O)c1cc(C)nc2ccccc12)c1ccc(N2CCOCC2)cc1 -10.2%
O=Cc1ccc(O)c2ncccc12 -26.5%
COc1ccc(/C=N/NC(=O)c2ccc3c(c2)NC(=O)C(C)(C)O3)cc1OC -5.68%
COc1ccc(S(=O)(=O)N2CCCCC2)cc1NS(=O)(=O)c1cc(Cl)ccc1Cl 32.2%
COc1cc(/C=N/NC(=O)C2C3CCCCC32C)cc(Br)c1O (centres undefined) -19.2%
COc1ccc(NC(=O)/C(C#N)=C\c2cc(C)n(-c3ccc4c(c3)OCO4)c2C)cc1 -9.92%
O=C(c1ccc(Cl)cc1)c1cc([N+](=O)[O-])ccc1N1CCOCC1 -5.48%
CC(/C=N/NC(=O)c1cc(-c2ccccc2)nc2ccccc12)=C\c1ccco1 -1.8%
C=CCn1c(SCc2c(C)noc2C)nc2ccccc2c1=O -0.584%
CCCC(=O)Nc1ccc(C(=O)N/N=C/c2cccnc2)cc1 -9.34%
Cc1ccnc(NC(=O)c2cccc(S(=O)(=O)Nc3ccc(C)cc3C)c2)c1 26.3%
CCNC(=S)N/N=C(\C)c1ccc(Cl)s1 4.96%
Cc1nnc2ccc(-c3ccc(NS(=O)(=O)c4ccccc4[N+](=O)[O-])cc3)nn12 8.84%
COc1ccc2cc(C3c4cc(OC)c(OC)cc4CCN3C(=O)c3ccco3)c(=O)[nH]c2c1 (centres undefined) 0.254%
CNc1nc(-c2ccc(OC)cc2)c(-c2ccc(OC)cc2)s1 -1%
O=C1CC(c2ccccc2)Cc2nc3ncnn3cc21 (centres undefined) -15.1%
O=[N+]([O-])c1cccnc1SCc1c(F)cccc1Cl 1.58%
Cc1ccc(NC(=O)C(=O)NCC2CCCN2S(=O)(=O)c2cccs2)cc1C (centres undefined) 3.93%
Cc1ccc(NC(=S)NC(=O)c2ccc(F)cc2)cc1S(=O)(=O)Nc1cccc(Cl)c1 -68%
C=CCn1c(SCC(=O)NCCO)nc2sc(C)c(C)c2c1=O 3.04%
COc1ccc(/C=N/NC(=O)C(=O)N2CCCCCC2)cc1[N+](=O)[O-] -0.149%
COc1cc(OC)cc(C(=O)Oc2c(CN3CCOCC3)cc(Cl)c3cccnc23)c1 1.92%
CNC(=S)N/N=C(\C)c1ccc(Cl)s1 0.177%
CC(=O)c1ccc2c(c1)CC(C)C(=O)N2C (centres undefined) 5.69%
Oc1cccc(/C=N/Nc2ccc(Cl)nn2)c1O -24.8%
CN(CC(=O)O/N=C(\N)c1ccccn1)S(=O)(=O)c1cc(Cl)ccc1Cl 3.71%
CCN(C(=O)c1cnc(NC(C)C)cc1C(F)(F)F)c1ccc(Cl)cc1Cl -1.24%
COc1ccc(COC(=O)c2cc([N+](=O)[O-])ccc2N2CCOCC2)cc1F -16.2%
CC1(CCc2ccc(O)cc2)NC(=O)NC1=O (centres undefined) -1.86%
O=c1cc(-c2ccc(F)cc2)[nH][nH]1 -13.3%
CCN(CC)S(=O)(=O)c1ccc(N2CCOCC2)c(NC(=O)c2[nH]c(C)c(C(C)=O)c2C)c1 11%
CCN(c1cccc(C)c1)S(=O)(=O)c1ccc(-c2cc(C)no2)s1 12%
COc1ccc(OC)c(C2C3=C(COC3=O)Nc3cc4c(cc32)OCO4)c1 (centres undefined) -14.2%
COc1cc(-c2noc(C)c2C#Cc2ccsc2)cc(OC)c1OC -23.8%
CCOC(=O)c1ccc(NC(=O)Nc2ccon2)cc1 -17.6%
COc1ccc(NC(=S)N=Nc2c(O)[nH]c3ccccc23)cc1 -16.6%
COCCNC(=S)N/N=C(\C)c1ccccc1F -0.357%
CCC1CCCCN1C(=S)NC(=O)c1cccs1 (centres undefined) -1.48%
COc1cc2c(cc1OC)-c1cc(NC3CCCCCC3)nc(=O)n1CC2 -5.21%
COc1ccc2c(c1)C(C)=CC(C)(C)N2S(=O)(=O)c1ccc(C)cc1 -1.01%
Cc1ccc2c(c1)C(=O)C(=O)N2CCOc1ccccc1 2%
CCn1c2ccccc2c2cc(NC(=O)c3cc(OC)c(OC)c(OC)c3)ccc21 -23.2%
COc1ccc(/C=N/NC(=O)c2[nH]c3ccc(Cl)cc3c2-c2ccccc2)c(C(=O)O)c1OC -14.4%
COc1ccc(NC(=S)NC(=O)/C=C/c2ccco2)cc1 0.558%
CCN(CC)c1ccc(/C=N/NC(=S)NC)c(O)c1 -3.72%
CCOc1ccccc1C1CC(=O)Nc2cc3c(cc21)OCCO3 (centres undefined) -25.9%
Cc1onc(-c2ccccc2)c1C(=O)Nc1cc(C(F)(F)F)ccc1N1CCOCC1 -17.3%
CCOC(=O)COc1cccc2c(=O)n(CC(=O)NCc3ccc(F)cc3)ccc12 -14%
Cc1ccsc1/C=C/C1=NCCCN1C -15.3%
O=C(CSc1cc(Cl)ccc1Cl)Nc1ccc(N2CCOCC2)cc1 9.12%
CCCCC[C@H](O)/C=C/[C@@H]1[C@@H](C/C=C\CCCC(=O)OC)[C@@H](O)C[C@H]1O -17.2%

Potency, active:
O=C(CCCN1C(=O)/C(=C/c2ccccc2OC(F)F)SC1=S)Nc1cccnc1 30.1 µM
CCSc1nc(-c2ccccc2)nc(C(Cl)Cl)n1 2.69 µM
COc1ccccc1C(=O)Nc1ccccc1SC(=O)c1ccccc1OC 23.9 µM
COc1ccc(/C=N/NC(=O)CCn2cnc(-c3ccccc3)c2-c2ccccc2)cc1 26.9 µM
